# In the supplement of paper PMC3334620:
# The full ranking holds about 33,000 sequences; the median of “E-score (-0.5 to 0.5)” is about -0.054, and the highest 2% start at about 0.39. Some of the results follow.
# Target: Ylr278c (UniProt Q05854)
# Test: PBM E-score (8-mer binding enrichment) (E-score (-0.5 to 0.5)); higher = stronger / more preferred TF binding; most listed sequences are background and not binding sites
# Details: protein concentration: 200 nM; construct: GST-DNA-binding domain
# Description: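 Universal 'all 10-mer' protein binding microarrays (Agilent AMADID 015681) probed with GST-tagged S. cerevisiae TFs (full-length or DBD) made by in vitro transcription/translation (PURExpress), about 100-200 nM. Bound TF was detected with fluorescent anti-GST. Each ungapped 8-mer (which stands for itself and its reverse complement) is scored by the PBM enrichment score (E-score), a modified Wilcoxon-Mann-Whitney statistic from -0.5 to +0.5, computed with the Universal PBM Analysis Suite. Scale: above 0.35 generally sequence-specific binding.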
row,Sequence,PBM E-score
1,AGGACAAA,-0.0109
2,GCGCGATA,0.168
3,TGCAGAAA,-0.00018
4,AAACCGCA,-0.11
5,GACCCTGA,-0.0558
6,CATCTATC,-0.0479
7,TCGGGACA,0.163
8,AGTAGGTG,-0.027
9,CACGTTCA,-0.148
10,CCCGGTTC,0.171
11,AAACCCGT,0.0191
12,CCGGCTTA,0.36
13,GATTCAGA,-0.0391
14,CCCTACAG,-0.218
15,ATCTTCAC,-0.0748
16,ACGCTTCA,-0.314
17,ACATATGT,-0.085
18,AGCTCCCC,-0.121
19,CGATCTGA,0.0201
20,ACAGCGGC,0.0736
21,ACGGTGTC,0.0954
22,GACCGCTC,0.0163
23,CTCTCCAG,-0.282
24,GAGAATTA,0.0026
25,ACCTCCGG,0.47

row,Sequence,PBM E-score
1,AGAATCCA,-0.089
2,AAGATATT,0.0287
3,GTATGTTA,0.0152
4,GATTAGTA,0.0658
5,CGACTCGC,0.0316
6,GATTAATA,0.105
7,GGGGAATA,0.141
8,TAAAACAA,-0.0903
9,ATAACGAC,-0.0629
10,ACCAGACC,-0.0464
11,CCAACGAC,-0.258
12,GTCTCAGA,-0.204
13,CGATAAAC,-0.0343
14,GTACCGTA,0.0161
15,GATTGGGC,0.0655
16,GGAAAACA,0.211
17,CTCTATCA,-0.0843
18,CAAACGTA,-0.146
19,ACTGACCT,-0.107
20,AGGCTACC,-0.195
21,ATGTTTTG,-0.0945
22,CAGTACGG,-0.0416
23,GCGTCAGC,0.0112
24,GCTTGCCC,-0.231
25,CGCTATAC,0.0919

row,Sequence,PBM E-score
1,AACACAAC,-0.0104
2,AAAGCAAT,0.0295
3,TGTCCTAA,-0.233
4,AAATACCA,-0.106
5,GAAGCTAC,-0.144
6,AGAGTATC,-0.0153
7,GGCTTACA,0.074
8,TACGTATA,-0.248
9,AAGGGACA,-0.338
10,GGATGGCA,0.162
11,GGGGCGAA,0.155
12,ACTGTGCG,0.00085
13,ATTGTGTG,-0.177
14,ACCTCCGA,0.454
15,CCCACACG,0.0476
16,AGGTTTTG,-0.102
17,CACCCCCG,0.145
18,ACCGGTGA,0.248
19,GCCCTCCA,-0.114
20,ATCTACCC,0.0943
21,CCATTACG,-0.226
22,ACAACTCT,-0.199
23,ACAACTGA,-0.0947
24,ATGTTGCG,0.154
25,CATACTAG,0.0773

row,Sequence,PBM E-score
1,AGATCAAC,-0.117
2,AGGTACCA,-0.114
3,ATCTAAGC,-0.261
4,ATCCAACA,-0.0549
5,CCTGTATC,-0.0301
6,GCCGAGTA,0.119
7,AAGGGAAA,-0.238
8,CCGAAGCG,0.279
9,ACGAGGCC,0.0992
10,AACGGGGG,-0.0339
11,ATGGTGTG,-0.23
12,GCTTTCAC,-0.142
13,ACTTCCAC,0.0604
14,GGGCCGGA,0.418
15,GGTGCAAA,-0.0749
16,ATACCAGA,-0.142
17,ACCAGACG,-0.241
18,AATCAGGC,-0.00034
19,GTTAAAGA,-0.108
20,ACCCTCCT,-0.199
21,GATTGAGC,-0.00835
22,CAGTAGCA,-0.0829
23,ACGTACGA,-0.153
24,ATGGCGAG,-0.178
25,CAGCCGTA,-0.0569

row,Sequence,PBM E-score
1,AGTATGGA,-0.0284
2,AGCCCGTG,-0.0379
3,CACGATGA,-0.181
4,ACGTGTCC,0.154
5,CTAGCTGA,-0.213
6,AGTTATCC,0.116
7,TGCGGGAA,0.33
8,GCTCAACC,-0.177
9,GAAATTGA,0.195
10,AGTAAGAA,0.0055
11,AAGAGAAA,-0.0718
12,GCATTCTA,-0.104
13,CGAAAGGA,0.154
14,AAAGCACG,-0.239
15,CACCCCCA,-0.259
16,AAGACCTG,-0.145
17,AAAGCGAG,0.0641
18,CCAAACAC,-0.144
19,GCGTGGGA,-0.12
20,AACCGCTG,-0.165
21,AATACCAG,-0.0227
22,CGCACATC,0.11
23,CTCTCGTC,-0.0968
24,AATGGCCG,0.261
25,ATATCGTG,0.059

row,Sequence,PBM E-score
1,AAGGAACA,-0.289
2,GAAGTGCC,0.0699
3,GGGATTAC,0.172
4,GTCATCCA,-0.151
5,ATTCGGCC,0.284
6,TATGCATA,-0.12
7,CTCAGAGA,-0.212
8,TGGTTAAA,-0.111
9,ACTTTCCA,0.0523
10,CATTTAGA,0.0126
11,GTGAATAA,-0.0423
12,ATGCTTTG,-0.0719
13,AGGACCCT,-0.276
14,CGTAAAAA,-0.116
15,AGACACAA,0.0242
16,ATAATTAT,0.0338
17,CCTCTACC,-0.0861
18,ACCTTTCT,-0.129
19,ATAAATGC,-0.00686
20,CTTGTGCC,-0.14
21,ACAGAGGG,-0.169
22,ATTGTATC,-0.0327
23,ATCAACCG,0.123
24,CCCCAGGC,-0.144
25,CTCACGGA,0.264

row,Sequence,PBM E-score
1,ATTGGGAC,-0.131
2,ACACTGCC,0.154
3,ACGCGAGT,0.0357
4,GGTCGACA,-0.0544
5,CATAGCAG,-0.323
6,AGATATAG,-0.0995
7,AGGTCTAG,-0.268
8,GATACCAC,0.0374
9,ACGAGCTC,0.159
10,TGTCTGAA,-0.131
11,ATAGTGTA,-0.188
12,GGGATACC,0.101
13,CACAAGAA,0.126
14,AAGCAAAC,-0.00769
15,AGTTTTCA,0.0469
16,AAGCTTCT,-0.103
17,AGGATGGG,-0.0635
18,AGTAACCG,0.0425
19,CGTTGGAA,-0.0729
20,AACATTGC,-0.126
21,CCTCCCCA,0.0214
22,AACTCAGC,-0.0498
